Test results: PubChem BioAssay AID1645887 (National Center for Advancing Translational Sciences (NCATS), 2021)
Hit rate of the full screen: of about 16,000 compounds, about 40 (0.2%) were called active. Another 1% or so got no clear call; they are omitted. Calls follow the shape of the dose curve; as a rule, active = well fitted activation curve with a large enough effect; inconclusive = small, poorly fitted or top-dose-only effect, or another doubt; inactive = no such curve, though single readings can be large or run the other way. This is one part of the list. Residues, ends and D or L forms follow the SMILES beside them.

biological target: Rap guanine nucleotide exchange factor 4 (Homo sapiens) (UniProt Q8WZA2); assay: Validation qHTS for agonist of cAMP-regulated guanine nucleotide exchange factor 4 (EPAC2); conditions: EPAC2 Rap1B BODIPY-GDP exchange, fluorescence; activation: hits give high values;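 also: exchange makes BODIPY-GDP fluorescence drop when released from Rap1B; series mostly up to about 150 µM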
Sequence of UniProt Q8WZA2 (Q8WZA2 whole entry, looked up): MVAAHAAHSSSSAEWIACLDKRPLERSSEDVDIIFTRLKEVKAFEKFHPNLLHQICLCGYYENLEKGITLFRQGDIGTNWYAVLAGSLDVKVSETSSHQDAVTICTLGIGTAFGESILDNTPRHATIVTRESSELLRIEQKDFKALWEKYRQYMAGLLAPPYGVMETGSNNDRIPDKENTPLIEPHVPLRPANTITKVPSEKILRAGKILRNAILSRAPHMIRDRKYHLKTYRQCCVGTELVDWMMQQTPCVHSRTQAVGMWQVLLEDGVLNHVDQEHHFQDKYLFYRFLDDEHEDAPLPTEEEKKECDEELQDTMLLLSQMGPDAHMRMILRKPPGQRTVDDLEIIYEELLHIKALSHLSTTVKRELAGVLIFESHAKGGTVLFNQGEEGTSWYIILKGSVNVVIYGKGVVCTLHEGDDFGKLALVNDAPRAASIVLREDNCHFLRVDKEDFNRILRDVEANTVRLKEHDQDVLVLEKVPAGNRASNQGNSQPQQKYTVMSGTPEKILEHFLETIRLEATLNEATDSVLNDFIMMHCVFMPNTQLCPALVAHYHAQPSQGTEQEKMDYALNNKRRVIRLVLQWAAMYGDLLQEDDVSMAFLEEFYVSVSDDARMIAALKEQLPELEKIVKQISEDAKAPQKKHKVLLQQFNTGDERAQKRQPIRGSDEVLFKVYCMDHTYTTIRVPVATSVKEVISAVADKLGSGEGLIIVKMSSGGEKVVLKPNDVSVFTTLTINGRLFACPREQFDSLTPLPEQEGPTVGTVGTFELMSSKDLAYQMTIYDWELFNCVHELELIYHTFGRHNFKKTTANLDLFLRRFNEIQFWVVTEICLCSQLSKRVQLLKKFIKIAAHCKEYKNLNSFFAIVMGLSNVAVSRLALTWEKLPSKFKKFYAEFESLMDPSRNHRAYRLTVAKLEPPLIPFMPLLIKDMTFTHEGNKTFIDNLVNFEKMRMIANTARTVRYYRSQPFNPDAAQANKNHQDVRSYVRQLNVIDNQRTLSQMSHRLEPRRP
Excerpt: Principle Investigator: Xiaodong Cheng Ph.D.
The University of Texas Medical Branch, […], TX
In multi-cellular eukaryotic organisms, the effects of cAMP are transduced by two ubiquitously-expressed intracellular cAMP receptors, the classic protein kinase A/cAMP-dependent protein kinase (PKA/cAPK) and the more recently discovered exchange protein directly activated by cAMP/cAMP-regulated guanine nucleotide exchange factor (EPAC/cAMP-GEF). Both PKA and EPAC are ubiquitously expressed in all tissues, and an increase in intracellular cAMP levels will lead to the activation of both PKA and EPAC. Therefore, careful dissections of the individual role and relative contribution of EPAC and PKA within the overall cAMP signaling in various model systems are critical for further elucidating the mechanism of cAMP signaling. To date no EPAC-specific antagonists and agonist, as well as isoform-specific agonists have been reported, and developing EPAC-specific pharmacological probes to determine the physiological functions that EPAC play in the overall cAMP-mediated signaling remains a major challenge within the research field. Furthermore, identified regulators of EPAC may lead to new mechanism-based therapeutic strategies specifically targeting the EPAC / cAMP-signaling components as EPAC has been implicated to play important roles in major human pathological conditions such as diabetes, heart disease, and cancer.
This qHTS will be used to screen the Molecular Libraries Small Molecule Repository (MLSMR) as a concentration-titration series using the NCGC unique quantitative screening (qHTS) platform to find activators for EPAC1. In addition, this assay will also be used as a counterscreen for the EPAC2 qHTS. This fluorescent based assay is developed and validated for EPAC1 that measures exchange using EPAC effector Rap1 complex with BODIPY-GDP, a GDP analog with a tethered fluorophores. Activators are identified by monitoring the change in fluorescence signal as the exchanged free BODIPY-GDP has a reduced fluorescence compared to Rap1-bound BODIPY-GDP. Increase in signal (activation) is the desired outcome for the EPAC1 agonist while no activity in this assay is desired for the EPAC2 agonist counterscreen.
[1] de Rooij, J., Zwartkruis, F. J., Verheijen, M. H., Cool, R. H., Nijman, S. M., Wittinghofer, A., and Bos, J.L. (1998) Nature 396, 474-477.
Briefly, three uL of reagents (100 nM EPAC2, 250 nM RAP1B-BODIPY-GDP, 50 uM GDP) were dispensed into a 1536-well Greiner black solid-bottom medium binding assay plate. Controls and test compounds (23 nL) were transferred to the plate via a Kalypsys pin tool equipped with a 1536-pin array. The plates were centrifuged at 1,000 rpm for 15 seconds followed by 5 minute incubation at room temperature. The assay plates were read at 5 minute intervals for 30 minutes in the ViewLux plate reader using 480nm excitation and 540nm emission filters. The results were normalized to the agonist positive control of 6.5 mM cAMP.
% is scaled to controls: 0 for no effect and ±100 for the full control effect.

activation, inactive:
Cc1occc1C(=O)Nc1cccc(-c2nc(CNC(=O)c3ccc4ccccc4n3)c(C)o2)c1 4.43%
C1=Cc2ccccc2/C1=C/c1ccc(/C=C2\C=Cc3ccccc32)cc1 -0.535%
Cc1cc(C)n(Cc2cccc(C(=O)NCC3Cc4cccc(-c5ncccn5)c4O3)c2)n1 (stereo not drawn) 4.28%
COC(=O)N1CCC2(CCCN(c3ccncc3)C2)CC1 -7.73%
CCCCCCCN(CC)CCCC(O)c1ccc(NS(C)(=O)=O)cc1 (stereo not drawn) -10.7%
CC1C(=O)CCC2[C@]1(C)CCC1[C@]2(C)CC[C@@]2(C)C3CC(C)(C)CC[C@]3(C)CC[C@@]12C (stereo partly drawn) -15.6%
COCCn1c(=O)c(-c2ccc(OC)cc2)nc2cnc(OC)nc21 -18.5%
OC(C[n+]1c(Cl)ccc2ccccc21)c1ccccc1 (stereo not drawn) -17.6%
N#Cc1ccccc1-c1ccc2ncnc(NCCN3CCOCC3)c2c1 -0.981%
S=C(S)O[C@@H]1C[C@@H]2C[C@H]1[C@@H]1CCC[C@H]21 -28.5%
COc1ccc(-c2cc(=O)c3c(O)cc(O[C@@H]4O[C@H](CO[C@@H]5O[C@@H](C)[C@H](O)[C@@H](O)[C@H]5O)[C@@H](O)[C@H](O)[C@H]4O)cc3o2)cc1O -13.8%
COc1ccc(/C=C2\NC(=O)[C@@H]3Cc4ccccc4CN3C2=O)cc1 -9.5%
O=C(c1ccncc1)N1CCC2(CCN(Cc3cc(C(F)(F)F)cc(C(F)(F)F)c3)CC2)CC1 -37.6%
C[C@@H]1Oc2ccccc2C=C1/C=C/C(=O)O -15.8%
CC[N+](CC)(CC)CCOC(=O)C(C1CCCC1)C1CCCC1 -2.82%
CC[N+]1(CC(=O)c2ccc(I)cc2)CCCCC1 -20.6%
COCCn1c(=O)c(-c2cccc(F)c2)nc2cncnc21 -0.554%
CN1CCC(=O)N([C@H](CSc2ccccc2)Cc2ccccc2)CC1 -25.7%
Cc1nc2ccc(C(=O)N3CCOc4ccc(CN5CCOCC5)cc4C3)cc2nc1C -7.65%
COc1ccccc1-c1cc2c(c(OC)c1)OCCN(CCC(C)c1ccc(C)o1)C2 (stereo not drawn) -6.08%
COCC(=O)Nc1cc(C(=O)N2CCN(C3CCCC3)C(=O)C2)c2c(c1)nc(-c1ccncc1)n2C -6.61%
O=C(Oc1ccccc1)N1CCC[C@@]2(CCN(c3ccccc3)C2)C1 -5.85%
CC(C)CC(NC(=O)CN)C(=O)NC(Cc1ccccc1)C(=O)O (stereo not drawn) (H-Gly-Leu-Phe-OH; configuration not given here) -3.33%
